Test results: PubChem BioAssay AID1963864 (Molecular Pharmacology Branch, DTP, NCI, 2024)
Certain results were filed several times, with different values. This is not the full list of results. There may be further records. Values given together repeat one measurement (runs, samples, wells, individuals or studies). A date in brackets names the month of the test. Signs of the kind (2×) count equal records among those shown.

Test system: KRAS PDC multicell spheroid viability
Assay: Anticancer human tumor 521955-158-R6-J3-PDC patient-derived pancreatic carcinoma cell line growth inhibition [KRAS2]
Conditions: for viability, T/C: stronger effect = lower value; for IC50: compound alone
Excerpt: Multicellular complex tumor spheroid response to RAS pathway inhibitors in combination with a targeted agents in patient-derived cell lines with oncogenic KRAS variants from multiple cancer types
A high-throughput screen of multi-cell type tumor spheroids was designed to identify active combinations of targeted small molecules and KRAS pathway inhibitors. Complex spheroids include a stromal component modeled by human endothelial cells (HUVEC) and fibroblasts modeled by human mesenchymal stem cells (MSCs). The concentration ranges selected for each drug and investigational agent were based upon clinically achievable concentrations if the clinical Cmax of the agent was known.
Compounds. The drugs and investigational agents: BI-3406 (NSC825286), BAY-293 (NSC824723), batoprotafib (TNO155; NSC825523), sotorasib (AMG 510; NSC818433), MRTX1257 (NSC819558), elimusertib (BAY 1895344; NSC800525), molibresib (GSK525762; NSC774829), temuterkib (LY3214996; NSC803410), venetoclax (NSC766270), alisertib (NSC759677), olaparib (NSC753686), talazoparib (NSC767125), erdafitinib (NSC781556), ipatasertib (NSC767898), cabozantinib (NSC761068), nintedanib (NSC756659), abemaciclib (NSC768073), docetaxel (NSC628503), trametinib (NSC758246), and sapanisertib (NSC764658) were obtained from the National Cancer Institute (NCI) Developmental Therapeutics Program Chemical Repository. The FDA-approved anticancer drug set is available from the Developmental Therapeutics Program. […] The stock solutions were prepared in dimethyl sulfoxide (DMSO, Sigma-Aldrich, St. Louis, MO, cat. D2650) at 800-fold the tested concentration and stored at -70 degrees C prior to their use. All drugs and investigational agents were tested over a range starting from a high concentration at or near the clinical Cmax and decreasing in half-log increments. If the clinical Cmax for an agent had not been determined, the highest concentration tested was 10 microM.
Cell Culture. All cells were maintained in an incubator at 37 degrees C and 5% CO2 with 95% humidity. The PDC lines were cultured according to standard operating procedures established by the NCI PDMR (https://pdmr.cancer.gov/sops/default.htm). Briefly, all PDCs were thawed and cultured in Matrigel-coated flasks prepared with a working solution of 1X Ham's F-12 nutrient mix, without supplementation (Invitrogen, Waltham, MA, cat. 11765054), 100 U/mL penicillin-streptomycin (Invitrogen, cat. 15140122), and 2.5% Matrigel (Corning Inc., Corning, NY, cat. 354248) for the first three passages. All PDCs were cultured in complete DMEM/F-12 media containing advanced DMEM/F-12 (Invitrogen, cat. 12634028), 4.9% defined fetal bovine serum, heat inactivated (HyClone Laboratories Inc., Logan, UT, cat. SH30070.03HI), 389 ng/mL hydrocortisone (Sigma-Aldrich, cat. H4001), 9.7 ng/mL human EGF recombinant protein (Invitrogen, cat. PHG0313), 23.4 microg/mL adenine (Sigma-Aldrich, cat. A2786), 97.3 U/mL penicillin-streptomycin (Invitrogen, cat. 15140122), 1.9 mM L-glutamine (Invitrogen, cat. 25030081), and 9.7 microM Y-27632 dihydrochloride (Tocris Bioscience, Bristol, United Kingdom, cat. 1254). The PDCs were cultured in complete DMEM/F12 media without 9.7 microM Y-27632 dihydrochloride for at least two passages prior to the screen. The established cell line HOP-62 was cultured in RPMI 1640 medium, HEPES (Invitrogen, cat. 22400105) with 10% defined fetal bovine serum (HyClone Laboratories Inc., cat. SH30070.03) and 2 mM L-glutamine (Invitrogen, cat. 25030081). The pooled donor HUVEC were cultured in endothelial cell growth medium 2 (PromoCell, Heidelberg, Germany, cat. C-22011) and the hMSC were cultured in mesenchymal stem cell growth medium 2 (PromoCell, cat. C-28009). For all experiments, HUVEC and hMSC were used at passages </=5, while the malignant cell lines were used at passages </=15. […]
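Also: drug exposure lasted seven days.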
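For viability, T/C in this document: 100% = DMSO vehicle wells and lower means fewer viable cells.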

Row | SMILES | viability, T/C (compound alone 1 µM) | viability, T/C (compound alone 10 µM) | viability, T/C (compound alone 3.16 µM) | further results
1 | O=C(c1cc(Cc2n[nH]c(=O)c3ccccc23)ccc1F)N1CCN(C(=O)C2CC2)CC1 | 108, 90.2, 80.5, 75, 77.7% | 107, 113, 85.2, 89.5, 81.8% |  | viability, T/C (compound alone 0.1 µM): 104, 94.8, 72.7, 95.4, 87.4%
2 | CCNC(=O)CC1N=C(c2ccc(Cl)cc2)c2cc(OC)ccc2-n2c(C)nnc21 (stereo unspecified) | 77.7, 86.7, 82.9, 107, 80.8% |  |  | 
3 | COc1cc2nccc(Oc3ccc(NC(=O)C4(C(=O)Nc5ccc(F)cc5)CC4)cc3)c2cc1OC | 101, 120, 105, 91.1, 89.5% | 112, 130, 121, 94.3, 93.2% | 111, 131, 122, 113, 100% | viability, T/C (compound alone 0.0316 µM): 92.3, 113, 111, 86.6, 100%; viability, T/C (compound alone 0.1 µM): 89.5, 111, 115, 95.7, 94%
4 | CNCc1ccccc1-c1csc(C(C)Nc2nc(C)nc3cc(OC)c(OC)cc23)c1 (stereo unspecified) | 68.5, 87.2, 57.8, 74.7, 63.5, 83.7, 75.4, 82, 88.6, 69.3, 72.8% [2021-08] and 69.8, 63.8, 70.8, 75.3, 73.4% [2021-09] |  | 87, 2.04, 1.59, 1.16, 0.67, 2.89, 0.48, 1.24, 1.07, 0.72, 2.03% [2021-08] and 0.26, 0.29, 0.37, 0.35, 0.25% [2021-09] | IC50 (run of 08/19/2021): 4.69, 1.57, 1.17, 1.47, 1.28, 1.62 µM
5 | C=CC(=O)N1CCN(c2nc(=O)n(-c3c(C)ccnc3C(C)C)c3nc(-c4c(O)cccc4F)c(F)cc23)C(C)C1 (stereo unspecified) | 87.4, 116, 103, 97.1, 98.7, 85.6, 102, 95.9, 105, 114, 97.5% [2021-08] and 86.6, 90.5, 92.5, 98.8, 98.9% [2021-09] | 120, 73.5, 92.2, 93.1, 80.5, 78.6, 69.7, 95.2, 98, 76.6, 75.9% [2021-08] and 76.9, 72.8, 67.3, 81.5, 83.7% [2021-09] | 111, 112, 104, 90.9, 95.5, 70.7, 89.5, 94.7, 110, 101, 91.3% [2021-08] and 83.8, 95.8, 92, 95.3, 91.2% [2021-09] | 
6 | COc1cc2nc(C)nc(NC(C)c3cc(N)cc(C(F)(F)F)c3)c2cc1OC1CCOC1 (stereo unspecified) | 72.3 (2×), 119, 73, 78.2, 83.3, 93.5, 87.5, 92.6, 83.1, 83.9% [2021-08] and 88.4, 77.6, 92.5, 92.7, 84.6, 78.1% [2021-09] | 66.8, 60.1, 57.9, 30.9, 27.6, 11.9, 24.6, 40.8, 42.6, 19.9, 39.7% [2021-08] and 21.5, 52.1, 19.2, 63.7, 30.5, 52.7% [2021-09] | 66.1, 77.6, 54.2, 70.4, 67.9, 80.1, 73, 76.3, 69.3, 68.7, 67.5% [2021-08] and 79.2, 75.8, 79.8, 83.3, 71, 68.7% [2021-09] | IC50 (run of 08/19/2021): > 10 µM, 5.48 µM, 5.05 µM, 5.26 µM; IC50 (run of 09/02/2021): 5.67 µM, > 10 µM, 5.54 µM, 5.74 µM
7 | Cn1ncnc1[C@H]1c2n[nH]c(=O)c3cc(F)cc(c23)N[C@@H]1c1ccc(F)cc1 |  |  |  | viability, T/C (compound alone 0.00316 µM): 107, 103, 94.2, 78.5, 79.6%; viability, T/C (compound alone 0.0316 µM): 105, 107, 90.4, 98.5, 79.5%
8 | COC(=O)c1ccc2c(C(=Nc3ccc(N(C)C(=O)CN4CCN(C)CC4)cc3)c3ccccc3)c(O)[nH]c2c1 | 110, 134, 132, 130, 101% |  | 71.7, 73, 47.8, 55.4, 43.2% | viability, T/C (compound alone 0.316 µM): 111, 118, 130, 106, 101%
9 | CC(=O)Nc1cccc(-n2c(=O)n(C3CC3)c(=O)c3c(Nc4ccc(I)cc4F)n(C)c(=O)c(C)c32)c1 |  |  |  | IC50: 24.1 nM, > 31.6 nM, 22.9 nM, 20.9 nM, 30.8 nM; viability, T/C (compound alone 0.001 µM): 99.2, 109, 116, 94.2, 89.9%
10 | C=CC(=O)N1CCN(c2nc(OCC3CCCN3C)nc3c2CCN(c2cccc4cccc(C)c24)C3)CC1CC#N (stereo unspecified) | 83.9, 95.4, 91.5, 73.6, 77.4, 74.2, 76.4, 81.3, 85.9, 89.5, 67.4% [2021-08] and 86.6, 79.8, 74.4, 87.7, 77.9% [2021-09] |  | 78.6, 25.2, 41.1, 33.3, 12.1, 26.1, 38.8, 61.8, 48.5, 46.9, 38.1% [2021-08] and 15.2, 39.7, 34, 46.2, 26.5% [2021-09] | viability, T/C (compound alone 0.316 µM): 80.8, 103, 99.2, 87.3, 81, 86.6, 100, 88.3, 96.8, 105, 76.9% [2021-08] and 95.2, 90.8, 91.9, 103, 91.3% [2021-09]; IC50 (run of 08/19/2021): > 3.16 µM, 2.11 µM, 2.59 µM, 1.96 µM, 1.56 µM, 1.78 µM; IC50 (run of 08/26/2021): 2.24 µM, > 3.16 µM, 3.03 µM, 2.94 µM, 1.95 µM
11 | CC1(C)CCC(CN2CCN(c3ccc(C(=O)NS(=O)(=O)c4ccc(NCC5CCOCC5)c([N+](=O)[O-])c4)c(Oc4cnc5[nH]ccc5c4)c3)CC2)=C(c2ccc(Cl)cc2)C1 |  | 41.6, 17.6, 34.9, 54.1, 52.2% | 89.2, 60.2, 80.8, 87.5, 74.8% | IC50: 8.17 µM, 4.19 µM, 6.85 µM, > 10 µM
12 | CC1OCC2(CCN(c3cnc(Sc4ccnc(N)c4Cl)c(N)n3)CC2)C1N (stereo unspecified) | 77, 101, 73.8, 76.6, 98.3, 93.7, 91.8, 90.7, 94.9, 89.6, 84.6% [2021-08] and 99.9, 108, 105, 88.8, 95.4, 88.1, 88.5, 79.1% [2021-09] | 88.3, 101, 80.7, 92.4, 95, 109, 102, 110, 113, 107, 99% [2021-08] and 110 (2×), 125, 106, 107, 114, 99, 91.5% [2021-09] | 99.5, 99.8, 89.8, 82.9, 97.5, 109, 106, 105 (2×), 99.6, 93.8% [2021-08] and 101, 116, 114, 96.5, 104, 108, 103, 88.7% [2021-09] | viability, T/C (compound alone 0.1 µM): 79.9, 80.3, 80.2, 77.5, 87.2, 99.3, 91.1, 86.7, 92, 82.2, 85.6% [2021-08] and 107, 95.9, 93.7, 88.4, 89.5, 89.2, 81.8, 77.7% [2021-09]
13 | COc1cc(Nc2ncc3c(n2)-c2ccc(Cl)cc2C(c2c(F)cccc2OC)=NC3)ccc1C(=O)O |  | 75.2, 96.7, 110, 95.2, 96.4% | 84.6, 92.3, 112, 97.5, 104% | 
